According to PubChem BioAssay AID504339 (National Center for Advancing Translational Sciences (NCATS), 2011):
Hit rate of the full screen: of about 390,000 compounds, about 17,000 (4.4%) were called active. The shares of active, inactive and inconclusive entries below differ from those in the screen. Calls follow the shape of the dose curve; as a rule, active = well fitted inhibition curve with a large enough effect; inconclusive = small, poorly fitted or top-dose-only effect; inactive = no such curve, though single readings can be large or run the other way. Potencies of inconclusive entries are doubtful fits and often do not repeat.

target: Lysine-specific demethylase 4A (Homo sapiens) (UniProt O75164); assay: qHTS Assay for Inhibitors of JMJD2A-Tudor Domain; conditions: AlphaScreen JMJD2A-Tudor / H3K4me3 peptide binding; series mostly up to 114 µM; also: nearly all actives have a fitted effect of over 50% in size
Potency is read from the fitted curve at half-maximal effect; tags tell the direction and shape of the fitted curve.

Chain of UniProt O75164 (O75164 whole entry, looked up, the tested form may be a part): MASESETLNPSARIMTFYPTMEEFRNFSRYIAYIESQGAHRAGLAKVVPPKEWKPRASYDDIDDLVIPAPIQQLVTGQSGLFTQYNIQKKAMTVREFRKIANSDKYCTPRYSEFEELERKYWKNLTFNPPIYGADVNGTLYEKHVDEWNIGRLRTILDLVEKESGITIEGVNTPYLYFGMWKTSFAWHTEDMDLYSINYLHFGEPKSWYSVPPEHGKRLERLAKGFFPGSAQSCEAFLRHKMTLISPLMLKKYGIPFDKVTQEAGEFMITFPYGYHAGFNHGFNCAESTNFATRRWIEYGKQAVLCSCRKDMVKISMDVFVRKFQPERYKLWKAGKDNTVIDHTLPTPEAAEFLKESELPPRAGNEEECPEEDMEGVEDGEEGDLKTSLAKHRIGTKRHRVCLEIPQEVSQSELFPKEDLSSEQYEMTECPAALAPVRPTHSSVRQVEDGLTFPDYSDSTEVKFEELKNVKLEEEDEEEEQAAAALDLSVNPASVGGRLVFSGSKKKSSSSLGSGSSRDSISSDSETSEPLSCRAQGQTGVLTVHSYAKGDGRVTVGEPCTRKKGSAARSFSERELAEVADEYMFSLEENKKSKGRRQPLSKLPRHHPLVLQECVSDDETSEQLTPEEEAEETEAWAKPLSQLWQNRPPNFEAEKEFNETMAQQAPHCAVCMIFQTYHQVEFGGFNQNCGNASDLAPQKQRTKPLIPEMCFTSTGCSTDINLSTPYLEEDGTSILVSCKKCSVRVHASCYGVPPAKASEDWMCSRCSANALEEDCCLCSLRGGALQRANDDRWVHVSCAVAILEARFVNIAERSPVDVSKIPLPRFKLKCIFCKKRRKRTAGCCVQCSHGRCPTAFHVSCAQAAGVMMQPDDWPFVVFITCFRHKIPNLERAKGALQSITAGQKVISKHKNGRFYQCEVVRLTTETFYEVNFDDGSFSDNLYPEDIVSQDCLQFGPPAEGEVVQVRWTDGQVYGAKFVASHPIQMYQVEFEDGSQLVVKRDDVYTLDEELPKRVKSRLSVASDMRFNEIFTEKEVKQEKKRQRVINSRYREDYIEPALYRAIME

Row | SMILES | Potency
1 | COc1ccc(NC(=O)CN(C)CC(=O)Nc2ccc(N3CCOCC3)cc2)c([N+](=O)[O-])c1 | inconclusive: 56.2 µM [inhibitor, partial curve]
2 | CC[C@@H](C)[C@@H]1CN([C@@H](C)CN2CCC[C@H]2CN2C(N)=NC[C@@H]2Cc2ccccc2)C(=N)N1CCCC1CCCC1 | inconclusive: 44.7 µM [inhibitor, partial curve]
3 | Cc1ccc(-n2nc3c(c2NC(=O)c2ccco2)CS(=O)C3)c(C)c1 (stereo not given) | inactive
4 | Clc1ccc(Br)cc1-c1nc(-c2ccncc2)no1 | inconclusive: 39.8 µM [inhibitor, single point]
5 | Clc1ccc(N2CCN(Cc3ccc(Br)o3)CC2)cc1 | active: 20 µM
6 | Cc1ccc(OCC(=O)NNC(=O)c2cc(C)[nH]n2)cc1 | inconclusive: 89.1 µM [inhibitor, single point]
7 | CCc1sc(/C=C(/C#N)C(N)=S)cc1[N+](=O)[O-] | inconclusive: 89.1 µM [inhibitor, single point]
8 | Cc1cnc(NC(=O)c2ccco2)s1 | inconclusive: 14.1 µM [inhibitor, full curve, poor fit]
9 | CCCN(CCC)c1nc2ccccc2nc1C(C#N)C(=O)OCCOC (stereo not given) | inactive
10 | COc1ccc(-c2cc(-c3ccc(Cl)cc3)c(C#N)c(SCC(=O)O)n2)cc1 | active: 79.4 µM
11 | COc1ccc(N2CCN(C(=O)c3ccc4c(Cl)c5c(nc4c3)CCCC5)CC2)cc1 | inconclusive: 22.4 µM [inhibitor, partial curve]
12 | COc1ccccc1-c1nc(CNC(=O)Nc2ccccc2)c(C)o1 | inactive
13 | CCCNC(=O)CCc1nnc2ccc(N3CCC(C)CC3)nn12 | inactive
14 | Cc1ccc2nc(SCCC#N)nc(C)c2c1 | inconclusive: 79.4 µM [inhibitor, single point]
15 | CCN(CC)C(=O)c1cccc(NC(=O)c2cc(-c3ccccn3)nc3ccccc23)c1 | inconclusive: 39.8 µM [inhibitor, partial curve]
16 | CC1=NN(c2ccc(C)cc2C)C(=O)C1C(c1ccccc1)C1C(=O)N(c2ccc(C)cc2C)N=C1C (stereo not given) | inconclusive: 79.4 µM [inhibitor, single point]
17 | COc1ccc(CN2C(=O)C(CC(C)C)Nc3ncnc(N4CCN(c5ccccn5)CC4)c32)cc1 (stereo not given) | inconclusive: 70.8 µM [inhibitor, single point]
18 | CCCC(=O)c1ccc(OC(=O)c2c(-c3ccccc3Cl)noc2C)cc1 | inactive
19 | O=C(C[C@@H]1C/C=C/CC[C@H](Cc2ccc(F)cc2)C(=O)OCCNC1=O)N[C@H](CO)Cc1ccccc1 | inactive
20 | COC(=O)/C(=N/Nc1ccccc1OC)N1CCCc2ccccc21 | inconclusive: 25.1 µM [inhibitor, full curve]
21 | Cc1nn(-c2ccccc2)c(OC(=O)C(C)(C)C)c1Sc1ccccc1 | inconclusive: 25.1 µM [inhibitor, full curve]
22 | O=C1NC(=O)/C(=C\c2ccc(N3CCOCC3)o2)N1 | inactive
23 | COc1cccc(CNc2ccc(S(N)(=O)=O)cc2)c1OCc1ccccc1F | inactive
24 | COc1ccc(CNC(=O)c2ccc3ccccc3n2)cc1 | inactive
25 | NC(=O)c1ccccc1OCC(=O)NS(=O)(=O)c1ccccc1 | inactive

Row | SMILES | Potency
26 | O=C(Nc1ccc2nc(-c3ccco3)c(-c3ccco3)nc2c1)N1CCCC1 | active: 14.1 µM
27 | O=c1nc2n(CCO)c3ccccc3cc-2c(=O)[nH]1 | inactive
28 | Cc1ccc(S(=O)(=O)NCC23C=CC(O2)C2C(=O)N(c4ccccc4)C(=O)C23)cc1 (stereo not given) | inconclusive: 15.8 µM [inhibitor, full curve, poor fit]
29 | CC(C(=O)N(C)C1CCS(=O)(=O)C1)N1C(=O)/C(=C/c2ccco2)SC1=S (stereo not given) | active: 50.1 µM
30 | CC(C)(C)c1ccc(NC(=O)Nc2ccc(F)cc2)cc1 | active: 35.5 µM
31 | COc1cccc(NC(=O)c2ccc3nc(Cc4ccccc4)oc3c2)c1 | inactive
32 | Cc1ccc(NC(=O)CCS(=O)(=O)c2cc(Br)cc3c2N(C(=O)C2CC2)CC3)cc1 | inactive
33 | CCc1nnc(NS(=O)(=O)c2ccc(N3C(=O)c4ccccc4C3=O)cc2)s1 | inconclusive: 35.5 µM [inhibitor, partial curve]
34 | O=C(CN1CCCCCC1)Nc1ccccc1F | active: 2.24 µM
35 | Cc1[nH][nH]c(=O)c1C(c1ccc(-c2ccc(Cl)c(C(=O)O)c2)o1)c1c(C)[nH][nH]c1=O | active: 50.1 µM
36 | COc1ccccc1CCc1nnc(CCC(=O)NCC[C@@H]2C[C@@H]3C=C[C@H]2C3)o1 | inactive
37 | COc1ccc(C(=O)OCC(=O)Nc2nc3c(F)c(F)c(F)cc3s2)cc1OC | inactive
38 | Cc1n[nH]c(=S)n(/N=C/c2ccccn2)c1=O | active: 2.82 µM
39 | Oc1ccc(-c2nc(=S)[nH][nH]2)cc1 | active: 5.01 µM
40 | Cc1ccccc1N=C1NC(=O)/C(=C/c2cccn2-c2cccc(C(=O)O)c2)S1 | active: 50.1 µM
41 | C[C@@]12C(=O)Nc3ccc(F)cc3C(=O)N1[C@H]1c3cc(Br)ccc3OC[C@@H]1[C@@H]2c1ccccc1 | inconclusive: 17.8 µM [inhibitor, partial curve]
42 | COc1ccc(CNS(=O)(=O)c2ccc(OC)cc2)cc1 | inactive
43 | Cc1cccc(NC(=S)NNc2cccc(Cl)c2)c1 | active: 56.2 µM
44 | CCOC(=O)CSc1nc2ccc(NC(=O)COc3ccccc3C)cc2s1 | inactive
45 | Cc1cc2nnc(SC(C)C#N)n2c2ccccc12 (stereo not given) | active: 10 µM
46 | CC(=O)Nc1ccc(N2CCCC(C)C2)c([N+](=O)[O-])c1 (stereo not given) | inconclusive: 63.1 µM [inhibitor, partial curve, poor fit]
47 | Cn1nc(C(=O)Nc2nc(-c3ccccn3)cs2)c2ccccc2c1=O | active: 22.4 µM
48 | CN(C)CCn1c(=O)n(Cc2ccccc2)c(=O)c2c3c(sc21)CCCCC3 | active: 39.8 µM
49 | Cc1ccc(C(=O)CNc2ccc(C)cc2C)cc1 | inconclusive: 25.1 µM [inhibitor, full curve, poor fit]
50 | O=C(Nc1ccc(Cl)cc1)c1cc2c(-c3ccccc3)nn(-c3ccccc3)c2s1 | inactive
